# In the supplement of paper PMC3334620:
# Over roughly 33,000 sequences, “E-score (-0.5 to 0.5)” has its median near -0.04; the highest 2% begin near 0.36. The list shows a part of the results.
# Target: T1, Hmlalpha2 (UniProt P0CY09)
# T1 sequence: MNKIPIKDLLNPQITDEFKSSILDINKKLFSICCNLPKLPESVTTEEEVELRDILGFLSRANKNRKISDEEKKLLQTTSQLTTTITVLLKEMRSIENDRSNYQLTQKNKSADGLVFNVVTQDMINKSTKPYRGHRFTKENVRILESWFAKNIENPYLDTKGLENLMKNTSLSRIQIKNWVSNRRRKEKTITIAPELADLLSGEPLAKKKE
# Test: PBM E-score (8-mer binding enrichment) (E-score (-0.5 to 0.5)); higher = stronger / more preferred TF binding; most listed sequences are background and not binding sites
# Conditions: protein concentration: 200 nM; construct: GST-full length
# In short: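 E-scores (a modified Wilcoxon-Mann-Whitney statistic) were assigned by the Universal PBM Analysis Suite to every ungapped eight-base word pooled with its reverse complement. The input came from universal all-10-mer Agilent arrays made double-stranded by primer extension and probed with GST-tagged yeast transcription factors at about 100-200 nM. Fluorescent anti-GST detected bound protein, and masliner normalised the scans.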
row,Sequence,PBM E-score
1,ACTTCGCT,-0.048
2,ATAGCCCA,0.02
3,CCCTGACA,-0.0343
4,CCCCGCGA,-0.24
5,CGGAGGTC,-0.166
6,CAATTTGA,0.126
7,TACAACGA,0.2
8,GAGGACAA,-0.166
9,CAAGTGTA,0.0757
10,GCGCGCAA,-0.00701
11,ACAAGGAA,0.165
12,CTACTATA,0.00693
13,AAGTTGGT,0.122
14,ACAATCCC,-0.0503
15,AGTACTCA,-0.00626
16,GTACCGGA,-0.0374
17,CGCCGTCC,-0.0603
18,CCGGGATA,-0.154
19,GGGGGTTA,-0.36
20,CTATGTGC,0.061
21,AGTCGTGA,-0.177
22,CGGGCGAC,-0.227
23,AGCATGCG,0.12
24,CCGGTCTC,-0.202
25,ACTAGAGA,-0.122

row,Sequence,PBM E-score
1,CTTGGACC,-0.137
2,GGGGTTAC,-0.121
3,AGCAGAAC,0.0637
4,CGGGAATA,-0.0282
5,GGCGACCC,-0.377
6,GACCATAC,-0.14
7,CGTATTGC,0.127
8,ACGTTGGC,0.104
9,AAACGCAG,0.192
10,AGCACTTG,-0.22
11,GACTGGTA,-0.0244
12,AAGTTCAG,0.0354
13,CGCTGACC,-0.123
14,AGTTAAGA,0.228
15,ACCTTCCC,-0.261
16,CTAGCACC,-0.157
17,GAGGTCGA,-0.0826
18,GTGGATAA,-0.0775
19,AAACAACG,0.17
20,AGGCCTTG,-0.0676
21,CGGTAGAG,-0.337
22,CGGCCCGC,-0.265
23,AGGCTGGC,-0.252
24,AGAAGCCT,0.0561
25,AAAATATC,0.0612

row,Sequence,PBM E-score
1,AGAATAAC,0.256
2,CGGTACAA,-0.00388
3,AGTCCATG,-0.0455
4,GCTGATCC,-0.297
5,ACCTGAAC,-0.0757
6,GCCGTCGA,-0.131
7,TCACCCAA,-0.109
8,CAACCACC,-0.218
9,ATTGCCGC,-0.0809
10,ATGGAGGG,-0.152
11,GGCTCCCA,-0.244
12,AAGATGGG,-0.247
13,CGTTCTAA,0.0634
14,GCAGCTAC,-0.0513
15,AAGATTTA,0.224
16,TATATCAA,0.136
17,CCCATGCG,-0.0486
18,AGGTCAGC,-0.0347
19,CGCCTAAA,-0.05
20,CACGCAGC,0.119
21,ATAGATCG,-0.0602
22,AATACTTG,0.23
23,AGTACGTC,-0.043
24,CAAGTTAG,0.0437
25,CTCTAAAA,-0.0362

row,Sequence,PBM E-score
1,GAGTTTCA,0.0942
2,GCGTGTAC,0.427
3,CCGTTGTA,0.221
4,CCACGCGC,-0.248
5,GATTTCGC,0.11
6,AGTGACCC,-0.278
7,ATTGATCA,-0.0281
8,AATATCGC,-0.112
9,CCCAAACA,0.129
10,CGCGATTA,0.0896
11,CTTTTTCC,-0.153
12,CCGCCACA,-0.153
13,AGATATAT,0.0914
14,CGCCAACC,-0.259
15,GCATCTCC,-0.324
16,GGTAGAAA,-0.104
17,AGCGAAAC,0.145
18,ACACTCTC,0.188
19,AGGGTATC,-0.16
20,AACACGTC,0.377
21,AACAACCT,0.18
22,ACCCCGTG,-0.0508
23,CCGCTGGA,-0.149
24,CGTAATAC,0.378
25,ATTATTCG,0.117

row,Sequence,PBM E-score
1,GTAAGGAA,0.11
2,CGAGCGAG,0.151
3,GTAGCATA,0.00571
4,TTAAAAAA,0.257
5,CACACTAC,0.19
6,AATTTAAC,0.344
7,CATGTGCC,0.0973
8,CCGTATCC,-0.243
9,GTCCCGTA,-0.107
10,ATCCACGG,-0.0132
11,CCCATGGC,-0.369
12,GTCAAACA,0.19
13,GCGTAACA,0.29
14,AATTTGCA,-0.0461
15,CTCATGAA,-0.0457
16,AGTTTGTG,-0.0364
17,ATAAACAA,0.323
18,AGGGATAT,-0.177
19,CTCCTTCA,-0.245
20,CAGGGGCA,-0.12
21,AAGGATTA,0.0726
22,GTACATTA,0.316
23,AGGTTGAC,-0.105
24,ATCAGACA,0.0303
25,AACTTGCG,0.118

row,Sequence,PBM E-score
1,CTAGTTAC,0.0707
2,AGCAACCG,-0.162
3,CATCAGGG,-0.183
4,ACCCTCCA,-0.325
5,GGTGATTA,0.0193
6,AACGGGCT,-0.202
7,CCGATCCA,-0.134
8,AATCGGCC,-0.278
9,GGCAATGA,-0.0543
10,CAGGTGAG,-0.27
11,GAGTCGCA,-0.267
12,AAAGTTTC,-0.0888
13,CAAGTACA,0.266
14,CACGCTGG,-0.123
15,GGCCCCAC,-0.367
16,CTGACTTC,-0.204
17,AAACCTGT,0.0739
18,CAGACGGA,-0.107
19,ACATATTC,0.3
20,ACTAGCAT,0.0651
21,CGCATACC,0.04
22,AGGCGTAA,0.105
23,AAGGCATG,0.0701
24,CCAACGTC,-0.149
25,CCTTCTCC,-0.294

row,Sequence,PBM E-score
1,CTCAATTA,0.165
2,AACGAAGC,-0.105
3,CGACACGA,0.334
4,ACCTGCAT,-0.139
5,CTAATAAG,0.0542
6,GGTCCGCA,-0.153
7,AGGCAGTC,-0.2
8,ATCCTCAT,-0.149
9,TCAGGCCA,-0.115
10,AGTGTTAG,0.0767
11,AGTCATTG,-0.213
12,CCACGGCA,-0.183
13,TAAGGCAA,-0.131
14,ATACCTTA,-0.0999
15,AGATACCA,-0.0373
16,ACTCTCAT,-0.0381
17,AGCGGAAA,-0.113
18,GGCTGTCA,-0.121
19,ACAGGGAG,-0.126
20,AGTGCAGG,-0.159
21,CCGAACTC,-0.114
22,AGCCGTTG,-0.0377
